# Experimental data reported in the supplement of paper PMC9446081.
# The campaign covered roughly 39,000 compounds. About 220 (0.56%) showed activity. Some of the results follow.
# Tested on: Escherichia coli K-12 BW25113
# Assay: relative growth (OD600 normalised to plate interquartile mean) (fraction); higher = less growth inhibition, active = 0.2 or less
# Conditions: 50 µM; LB; incubation time: overnight (16-24 h)
# 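Note: static incubation at 37 °C against the wild-type strain, values averaged over two biological replicates.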
row,Structure (SMILES),relative growth
1,COc1ccccc1C#Cc1cnc2c(c1)C(=O)N([C@H](C)CO)C[C@H](C)[C@@H](CN(C)C(=O)CN(C)C)O2,inactive: 1.01
2,C[C@H](CO)N1C[C@H](C)[C@@H](CN(C)C(=O)NC2CCCCC2)Oc2c(NC(=O)Cn3cnnn3)cccc2C1=O,inactive: 1.01
3,C=C(/C=C\CNS(=O)(=O)c1ccc(C)cc1)[C@H](O)[C@H]1CCCN1S(=O)(=O)c1ccccc1[N+](=O)[O-],inactive: 1.03
4,C[C@@H]1CN([C@@H](C)CO)S(=O)(=O)c2ccc(-c3cncnc3)cc2O[C@H]1CN(C)C(=O)c1cccc(F)c1,inactive: 0.997
5,O=C(N[C@H]1CC[C@H](CCNS(=O)(=O)c2ccccc2)O[C@@H]1CO)c1cnccn1,inactive: 1
6,N#C[C@H](c1ccccn1)N1CCOCC1,inactive: 0.981
7,C[C@H]1CN([C@@H](C)CO)S(=O)(=O)c2ccc(C#Cc3ccncc3)cc2O[C@@H]1CN(C)C(=O)C1CCCCC1,inactive: 1.02
8,CC(=O)OCO/N=[N+](\[O-])N1CCCC1,inactive: 0.996
9,C[C@@H]1CCCCO[C@@H](CN(C)S(=O)(=O)c2ccc(Cl)cc2)[C@H](C)CN([C@@H](C)CO)C(=O)c2cc(NC(=O)c3ccccc3)ccc2O1,inactive: 1.02
10,CC(C)NC(=O)N1Cc2cc(C(=O)NCC(F)(F)F)nc(-c3cccc(-c4cc5ccccc5o4)c3)c2[C@@H]1CCO,inactive: 1.02
11,COc1ccc([Si](C)(C)[C@H]2[C@H](CC(=O)N3CCC[C@H]3CO)O[C@@]3(C(=O)N(Cc4ccc(N5C(=O)c6cccc7cccc5c67)cc4)c4ccccc43)[C@@H]2C)cc1,inactive: 1.03
12,N#CC(c1ccc(Cl)cc1)c1c(Cl)cc(-n2ncc(=O)[nH]c2=O)cc1Cl (stereo not given),inactive: 0.808
13,Cn1cnc(S(=O)(=O)N2C[C@H](O)COC[C@@H]3O[C@H](CC(=O)NC4CCC4)CC[C@H]32)c1,inactive: 0.975
14,COc1ccc2c3c(n(c2c1)C)[C@H](CO)N(C[C@]13CCN(CC1)C(=O)Nc1ccc(cc1F)F)C(=O)Nc1ccc(cc1)F,inactive: 1.01
15,CO[C@@H]1CN(C)C(=O)c2ccc(NC(=O)Nc3cccc(F)c3)cc2OC[C@H](C)N(C(=O)Nc2c(C)noc2C)C[C@@H]1C,inactive: 1
16,CCCNC(=O)N1C[C@]2(CCN(CC2)S(=O)(=O)c2cccc(c2)OC)c2c(n(c3cc(ccc23)OC)C)[C@@H]1CO,inactive: 0.994
17,C[C@H]1CN([C@@H](C)CO)S(=O)(=O)c2ccc(C#Cc3ccccc3F)cc2O[C@H]1CN(C)CC1CC1,inactive: 0.977
18,Cc1ccc2c(c1)C(=O)CCS2,inactive: 0.983
19,C[C@H]1CCCCO[C@@H](CN(C)C(=O)Nc2cccc3ccccc23)[C@@H](C)CN([C@@H](C)CO)C(=O)c2cc(NS(C)(=O)=O)ccc2O1,inactive: 0.979
20,C[C@H]1CCCCO[C@H](CN(C)S(C)(=O)=O)[C@@H](C)CN([C@@H](C)CO)C(=O)c2cc(NS(=O)(=O)c3cn(C)cn3)ccc2O1,inactive: 1

row,Structure (SMILES),relative growth
1,C[C@@H]1CN([C@@H](C)CO)C(=O)CCCn2nncc2CO[C@H]1CN(C)S(=O)(=O)c1ccc(-n2cccn2)cc1,inactive: 0.985
2,O=C(C[C@@H]1C[C@@H]2c3cc(NS(=O)(=O)c4ccc(F)cc4)ccc3O[C@@H]2[C@@H](CO)O1)NCCN1CCCCC1,inactive: 1.01
3,C[C@H](CO)N1C[C@H](C)[C@@H](CN(C)C(=O)Cc2ccccc2)OCCCC[C@H](C)Oc2ccc(NC(=O)Nc3ccc(F)cc3)cc2C1=O,inactive: 1
4,COc1ccc(NC(=O)Nc2ccc3c(c2)C(=O)N([C@@H](C)CO)C[C@@H](C)[C@@H](CN(C)C(=O)Nc2ccc(C(F)(F)F)cc2)OCCCC[C@@H](C)O3)cc1,inactive: 0.956
5,C[C@@H]1CN([C@H](C)CO)C(=O)Cc2cc(NC(=O)Nc3ccc(C(F)(F)F)cc3)ccc2O[C@H]1CN(C)C(=O)NC1CCCCC1,inactive: 0.997
6,COc1ccc(NC(=O)Nc2ccc3c(c2)C(=O)N([C@@H](C)CO)C[C@H](C)[C@H](CN(C)S(=O)(=O)c2cn(C)cn2)O3)cc1,inactive: 0.986
7,C[C@@H]1CN([C@@H](C)CO)C(=O)c2cc(NC(=O)CCCN(C)C)ccc2O[C@@H]1CN(C)S(=O)(=O)c1ccccc1,inactive: 1.03
8,CC(C)NC(=O)Nc1ccc2c(c1)C(=O)N([C@H](C)CO)C[C@H](C)[C@H](CN(C)Cc1ccc(C(F)(F)F)cc1)OCCCC[C@H](C)O2,inactive: 1.03
9,CC(C)NC(=O)Nc1ccc2c(c1)C(=O)N([C@H](C)CO)C[C@@H](C)[C@H](CN(C)S(=O)(=O)c1cccs1)O2,inactive: 1.02
10,CO[C@H]1CN(C)C(=O)c2cc(NC(=O)Nc3ccccc3F)ccc2OC[C@H](C)N(Cc2ccccc2C(=O)O)C[C@H]1C,inactive: 0.99
11,CNC(=O)C[C@H]1CC[C@@H]2[C@H](COC[C@@H](O)CN2C(=O)c2ccc3c(c2)OCO3)O1,inactive: 0.996
12,COc1ccc(NC(=O)N(C)C[C@@H]2OCCCC[C@H](C)Oc3ccc(NS(=O)(=O)c4ccc(OC)cc4)cc3C(=O)N([C@H](C)CO)C[C@@H]2C)cc1,inactive: 0.974
13,COc1ccc(NC(=O)Nc2ccc3c(c2)C(=O)N([C@@H](C)CO)C[C@H](C)[C@H](CN(C)C(=O)Nc2ccc(OC)cc2)OCCCC[C@H](C)O3)cc1,inactive: 0.996
14,C[C@@H]1CCCCO[C@@H](CN(C)Cc2ccc(C(F)(F)F)cc2)[C@H](C)CN([C@H](C)CO)C(=O)c2cc(NC(=O)Nc3ccc(C(F)(F)F)cc3)ccc2O1,inactive: 1.02
15,Cc1sc(Nc2ccccc2)nc1-c1ccc(Cl)cc1,inactive: 1.04
16,C[C@@H]1CCCCO[C@@H](CN(C)C(=O)NC2CCCCC2)[C@H](C)CN([C@H](C)CO)C(=O)c2cc(NC(=O)Cc3ccccc3)ccc2O1,inactive: 0.984
17,C[C@@H]1CN([C@@H](C)CO)S(=O)(=O)c2ccc(C#Cc3ccccn3)cc2O[C@@H]1CN(C)Cc1ccccc1,inactive: 1.02
18,CNC(=O)c1ccc(N)cc1,inactive: 1.01
19,C[C@@H]1CN([C@H](C)CO)C(=O)c2cc(NC(=O)Nc3cccc4ccccc34)ccc2O[C@@H]1CN(C)Cc1ccc(Oc2ccccc2)cc1,inactive: 1.02
20,C[C@@H]1CN([C@H](C)CO)C(=O)c2cc(NC(=O)Nc3cccc4ccccc34)ccc2O[C@H]1CN(C)S(=O)(=O)c1ccc(Cl)cc1,inactive: 1.03

row,Structure (SMILES),relative growth
1,COc1cc2c(cc1OC)CN(C(=O)[C@H]1[C@@H]3C(=O)O[C@@H](c4ccccc4)[C@@H](c4ccccc4)N3[C@@H](c3ccccc3OCCO)[C@]13C(=O)Nc1ccc(C#CC4=CCCCC4)cc13)CC2,inactive: 1.09
2,COc1ccc(NC(=O)N(C)C[C@@H]2OCCCC[C@@H](C)Oc3ccc(NC(=O)Nc4ccc(F)cc4)cc3C(=O)N([C@@H](C)CO)C[C@H]2C)cc1,inactive: 1.01
3,Cc1noc(C)c1NC(=O)N(C)C[C@H]1Oc2ncc(C#CCC(C)C)cc2C(=O)N([C@H](C)CO)C[C@@H]1C,inactive: 0.981
4,C[C@H]1CN([C@@H](C)CO)C(=O)Cc2cc(NC(=O)CCN3CCOCC3)ccc2O[C@H]1CN(C)C(=O)Nc1ccc2c(c1)OCO2,inactive: 1
5,COc1ccc(S(=O)(=O)N(C)C[C@H]2OCCCC[C@H](C)Oc3ccc(NS(=O)(=O)c4ccc(Cl)cc4)cc3C(=O)N([C@@H](C)CO)C[C@H]2C)cc1,inactive: 1.04
6,O=C(NCc1nc2ccccc2[nH]1)C1=C[C@H](c2ccc(C(F)(F)F)cc2)C[C@H](OCc2ccc(CO)cc2)O1,inactive: 1.02
7,CCc1nc2ccccc2c(N)c1C,inactive: 0.99
8,C[C@@H]1CN([C@@H](C)CO)C(=O)c2cc(NC(=O)Nc3cccc4ccccc34)ccc2O[C@H]1CN(C)Cc1ccc(Cl)c(Cl)c1,inactive: 1.03
9,C[C@H](CO)N1C[C@H](C)[C@H](CN(C)C(=O)Nc2cccc3ccccc23)OCCCC[C@H](C)Oc2ccc(NC(=O)Nc3ccc4c(c3)OCO4)cc2C1=O,inactive: 1.01
10,C[C@H]1CCCCO[C@@H](CN(C)Cc2ccc(C(=O)O)cc2)[C@@H](C)CN([C@@H](C)CO)C(=O)c2cc(NC(=O)Cc3ccccc3)ccc2O1,inactive: 0.986
11,O=C(c1ccncc1)N1C[C@H]2[C@@H](c3ccccc31)[C@H](CO)N2C(=O)CN1CCOCC1,inactive: 1.02
12,O=C(C[C@@H]1CC[C@H]2[C@@H](COC[C@@H](O)CN2S(=O)(=O)c2ccccc2)O1)N[C@@H]1CCN(Cc2ccccc2)C1,inactive: 0.999
13,CNC(=O)Cc1cnc(N)s1,inactive: 0.981
14,NNC(=O)CN1CCCc2ccccc21,inactive: 0.941
15,COc1ccc(S(=O)(=O)N(C)C)cc1,inactive: 1.02
16,CCC(=O)c1ccc(O)cc1,inactive: 1.02
17,C[C@@H]1CN([C@H](C)CO)C(=O)Cc2cc(NS(=O)(=O)c3ccc(Cl)cc3)ccc2O[C@@H]1CN(C)C(=O)Nc1cccc2ccccc12,inactive: 1.01
18,CCS(=O)(=O)Nc1ccc2c(c1)C(=O)N(C)C[C@@H](OC)[C@@H](C)CN(Cc1ccccn1)[C@H](C)CO2,inactive: 1.04
19,C[C@@H]1CCCCO[C@@H](CN(C)C(=O)NC2CCCCC2)[C@@H](C)CN([C@H](C)CO)C(=O)c2cc(NC(=O)Nc3ccc4c(c3)OCO4)ccc2O1,inactive: 0.98
20,COc1ccc(CN(C)C[C@H]2OCCCC[C@H](C)Oc3ccc(NC(=O)Nc4ccc(C(F)(F)F)cc4)cc3C(=O)N([C@H](C)CO)C[C@H]2C)cc1,inactive: 0.997
